# Source: the supplement of paper PMC4604168 (melanoma cell lines)
# The list shows a part of the results. Many values rest on one well or one pass, so single values are uncertain.
# Key:
# Assay in all cases: cell count relative to DMSO control; melanoma cells; higher = more viable cells
# Settings in all cases: library dose: low library concentration; 72 h
# [1] = system: MZ2-MEL
# [2] = system: MeWo
# [3] = system: RPMI7951
# [4] = system: RVH-421
# [5] = system: SkMel28
# [6] = system: SkMel2
# [7] = system: SkMel30
# [8] = system: SkMel5
# [9] = system: UACC257
# [10] = system: UACC62
# 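Also: cell number obtained by counting DAPI-stained nuclei in high-throughput microscope images with image analysis software, screen run in 1,536-well plates.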
Compound,cell count [1] [%],cell count [2] [%],cell count [3] [%],cell count [4] [%],cell count [5] [%],cell count [6] [%],cell count [7] [%],cell count [8] [%],cell count [9] [%],cell count [10] [%]
"OCc1c[nH]c2ccccc12 [Indole-3-carbinol] + CC(C)(C)c1cnc(CSc2cnc(NC(=O)C3CCNCC3)s2)o1 [SNS-032] (first compound 0.8 µM, partner dose 0.01 µM)",101,102,88,108,73.8,97.3,109,96.5,97.5,87.3
"C#Cc1cccc(Nc2ncnc3cc(OCCOC)c(OCCOC)cc23)c1 [erlotinib] + CC1(C)NC(=O)N(c2ccc([N+](=O)[O-])c(C(F)(F)F)c2)C1=O [nilutamide] (first compound 0.8 µM, partner dose 1 µM)",93.5,84.5,96.9,94,80.2,104,93.7,104,75.4,88.8
"Nc1cccc2c1CN(C1CCC(=O)NC1=O)C2=O (stereo not given) [lenalidomide] + NC(=O)Nc1cc(-c2cccc(F)c2)sc1C(=O)N[C@H]1CCCNC1 [AZD7762] (first compound 1 µM, partner dose 0.02 µM)",108,107,99.1,106,112,103,106,97.5,107,82.5
"O=C(CCCCCCC(=O)Nc1ccccc1)NO [vorinostat] + C[C@@H]1CCN(C(=O)CC#N)C[C@@H]1N(C)c1ncnc2[nH]ccc12 [CP690550] (first compound 0.08 µM, partner dose 1 µM)",99.2,91,81.9,102,92.8,105,127,101,94.9,99
"Cn1c(Nc2ccc(C(F)(F)F)cc2)nc2cc(Oc3ccnc(-c4ncc(C(F)(F)F)[nH]4)c3)ccc21 + CC(C)(C)c1cnc(CSc2cnc(NC(=O)C3CCNCC3)s2)o1 [SNS-032] (first compound 0.08 µM, partner dose 0.01 µM)",73.4,62.9,53.1,61.9,48.4,75.5,58.7,66.3,39.1,42.5
"Clc1ccc(Nc2nnc(Cc3ccncc3)c3ccccc23)cc1 [vatalanib] + CN(C)S(=O)(=O)c1ccc2c(c1)/C(=C/c1cc3c([nH]1)CCCC3)C(=O)N2 [SU6656] (first compound 2 µM, partner dose 0.4 µM)",103,87.2,100,94.9,99.7,93.3,93.7,75.4,89.5,71.4
"Nc1cccc2c1CN(C1CCC(=O)NC1=O)C2=O (stereo not given) [lenalidomide] + O=C(O)c1ccc(-c2c[nH]c3ncc(-c4ccccc4)cc23)cc1C1CCCC1 [GSK650394] (first compound 1 µM, partner dose 0.16 µM)",103,87.6,110,105,109,102,115,104,92.2,103
"Clc1ccc(Nc2nnc(Cc3ccncc3)c3ccccc23)cc1 [vatalanib] + COc1cc2ncnc(Nc3ccc(Oc4ccccc4)cc3)c2cc1OC [SrcI1] (first compound 2 µM, partner dose 2 µM)",90.7,84,109,107,72.3,112,99.7,93.7,82.1,101
"Clc1ccc(Nc2nnc(Cc3ccncc3)c3ccccc23)cc1 [vatalanib] + C=CCn1c(=O)c2cnc(Nc3ccc(N4CCN(C)CC4)cc3)nc2n1-c1cccc(C(C)(C)O)n1 [MK1775] (first compound 2 µM, partner dose 0.02 µM)",94.2,82.4,91,81,86.7,78.3,100,65.7,58.8,78.2
